These results are taken from PubChem BioAssay AID1645887 (National Center for Advancing Translational Sciences (NCATS), 2021).

Molecules are shown by their SMILES. Where “and” joins values, the source holds several entries; their conditions need not be identical. Equal entries are not always repeated. The campaign covered roughly 16,000 compounds. About 40 (0.2%) were called active. About 1% were inconclusive and are not listed. Calls follow the shape of the dose curve; as a rule, active = well fitted activation curve with a large enough effect; inconclusive = small, poorly fitted or top-dose-only effect, or another doubt; inactive = no such curve, though single readings can be large or run the other way. The list shows a part of the results. Non-standard residues stand in square brackets, D forms with d. Residues, ends and D or L forms follow the SMILES beside them. Met(O) = CS(=O)CC[C@H](N)C(=O)O; Phe(ol) = N[C@H](CO)Cc1ccccc1; Sar = CNCC(=O)O
% is scaled to controls: 0 for no effect and ±100 for the full control effect.

In the assay the target is Rap guanine nucleotide exchange factor 4 (Homo sapiens) (UniProt Q8WZA2). The experiment in a line: Validation qHTS for agonist of cAMP-regulated guanine nucleotide exchange factor 4 (EPAC2).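 Also: exchange makes BODIPY-GDP fluorescence drop when released from Rap1B; series mostly up to about 150 µM.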 Conditions: EPAC2 Rap1B BODIPY-GDP exchange, fluorescence; activation: hits give high values. Put shortly: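 Signal normalized against 6.5 mM cAMP as agonist control. Mix of EPAC2 (100 nM), RAP1B-BODIPY-GDP (250 nM) and GDP (50 uM) was read kinetically at 480/540 nm, every 5 min over 30 min, after 5 min room-temperature incubation with compound.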
Sequence of UniProt Q8WZA2 (Q8WZA2 whole entry, looked up): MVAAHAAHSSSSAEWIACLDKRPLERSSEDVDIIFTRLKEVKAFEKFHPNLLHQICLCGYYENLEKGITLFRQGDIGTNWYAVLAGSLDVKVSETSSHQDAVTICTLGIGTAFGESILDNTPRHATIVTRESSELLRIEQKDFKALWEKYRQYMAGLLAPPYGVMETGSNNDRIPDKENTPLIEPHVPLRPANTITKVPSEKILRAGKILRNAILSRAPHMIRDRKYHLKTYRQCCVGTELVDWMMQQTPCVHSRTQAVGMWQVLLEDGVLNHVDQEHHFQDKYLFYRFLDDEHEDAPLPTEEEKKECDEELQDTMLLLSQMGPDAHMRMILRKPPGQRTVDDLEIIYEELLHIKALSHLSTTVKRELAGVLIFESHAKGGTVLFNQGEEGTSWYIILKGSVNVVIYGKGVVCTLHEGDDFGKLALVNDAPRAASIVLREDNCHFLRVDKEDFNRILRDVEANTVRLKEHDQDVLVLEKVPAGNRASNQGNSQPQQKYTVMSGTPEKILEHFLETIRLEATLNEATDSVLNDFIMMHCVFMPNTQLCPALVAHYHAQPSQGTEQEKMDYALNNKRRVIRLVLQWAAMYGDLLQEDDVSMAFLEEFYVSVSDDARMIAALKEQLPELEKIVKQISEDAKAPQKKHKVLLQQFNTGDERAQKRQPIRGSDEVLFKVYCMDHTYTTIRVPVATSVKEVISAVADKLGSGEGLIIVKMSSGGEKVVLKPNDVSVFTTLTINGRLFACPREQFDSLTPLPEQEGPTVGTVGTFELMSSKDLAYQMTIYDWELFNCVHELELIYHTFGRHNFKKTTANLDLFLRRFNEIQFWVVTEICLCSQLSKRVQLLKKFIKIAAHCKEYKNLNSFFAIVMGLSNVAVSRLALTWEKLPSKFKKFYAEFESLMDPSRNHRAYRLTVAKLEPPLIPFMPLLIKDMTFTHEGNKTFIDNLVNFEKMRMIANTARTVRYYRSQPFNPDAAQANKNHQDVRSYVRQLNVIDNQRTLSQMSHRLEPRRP
In the case of `CNC(=O)Oc1cccc2ccccc12`, the activation was inactive: -27.6%.

Consider `CCOC(=O)c1cncn1[C@H](C)c1ccccc1`, for which the activation was inactive: -1.12%.

For the compound `CCOC(=O)c1cncn1C(C)c1ccccc1` (centres undefined), the activation was inactive: -25.9%.

As for `Cc1noc(C)c1C(=O)N1CCC2(CCCN(CC(C)C)C2)CC1`, the activation is inactive: -0.998%.

With `N[C@@H](CCP(=O)(O)O)C(=O)O`, the activation is inactive: -17.4%.

`CCOC(=O)/C=C(C)/C=C/C[C@@H](C)CCCC(C)C`: the activation is inactive: -19.9%.

On to `C#CCN1CC(=O)N(COC(=O)C2C(C=C(C)C)C2(C)C)C1=O` (centres undefined), for which the activation is inactive: -43.6%.

Consider `Cc1ncsc1CCCl`, for which the activation was inactive: 2.05% and inactive: -4.55% and inactive: -37.2%.

`CC(=O)OC1CC[C@]2(C)C(CCC3C2CC[C@]2(C)C(C4=CC(=O)OC4)C(OC(C)=O)CC32O)C1` (some centres undefined): the activation is inactive: -43.3%.

`CCCCCCC(C)(C)c1ccc([C@@H]2C[C@H](O)CC[C@H]2CCCO)c(O)c1`: the activation is inactive: -71.9%.

For the compound `CC(C)CN1CCC2(CC1)CCN(S(C)(=O)=O)CC2`, the activation was inactive: -2.25%.

Consider `CCN1C[C@]2(C)CC[C@H](OC)[C@@]34[C@H]1C1(OCO[C@@]15C[C@H](OC)C1C[C@]3(O)C5[C@H]1OC)[C@@H](O)[C@H]24`, for which the activation was inactive: -13.5%.

Regarding `C[C@@]12CCC(Cl)C[C@H]1CCC1C2CC[C@]2(C)C(=O)CCC12` (some centres undefined), the activation was inactive: -2.76%.

Regarding `COC1(CS(=O)c2ccccc2)CCN(CCc2c[nH]c3ccc(F)cc23)CC1` (centres undefined), the activation was inactive: -21.9%.

Consider `O.O.O.O=C([O-])C(O)C(O)C(=O)[O-].O=C([O-])C(O)C(O)C(=O)[O-].[K+].[K+].[Sb].[Sb]` (centres undefined), for which the activation was inactive: 1.66%.

`C=CCN1CC[C@@]23c4c5ccc(O)c4O[C@H]2/C(=N\N=C2/CC[C@@]4(O)[C@H]6Cc7ccc(O)c8c7[C@@]4(CCN6CC=C)[C@@H]2O8)CC[C@]3(O)[C@@H]1C5`: the activation is inactive: -15.7%.

Consider `CC1Cc2ccccc2CN1` (centres undefined), for which the activation was inactive: -10.7%.

As for `O=C(c1csnn1)N1CCC2(CC1)CN(Cc1ccncc1)C2`, the activation is inactive: -8.62%.

As to `CCCCCCCCCCCCCCCCOC[C@@H](O)COP(=O)([O-])OCC[N+](C)(C)C`, the activation was inactive: -2.53%.

As to `C[C@]1(C(=O)O)CCC[C@]2(C)c3cc(O)ccc3CC[C@@H]12`, the activation was inactive: -3.77%.

In the case of `NC[C@H](CP(=O)(O)O)c1ccc(Cl)cc1`, the activation was inactive: 0.516%.

Take `CCCCCCCCCOc1ccc2[nH]cc(CCN)c2c1`: the activation is inactive: -47.4% and inactive: -10.5%.

On to `CC(=O)[C@H]1CCC2C3CC[C@H]4C[C@H](O)CC[C@]4(C)C3CC[C@@]21C` (some centres undefined), for which the activation was inactive: -54.9%.

For `Clc1ccc(COC(Cn2ccnc2)c2ccc(Cl)cc2Cl)cc1` (centres undefined), the activation is inactive: -16.6% and inactive: 20.8%.

For `COc1ccc2c(c1OC)C(=O)OC2C1c2cc3c(cc2CCN1C)OCO3` (centres undefined), the activation was inactive: 4.07% and inactive: 7.74% and inactive: 0.336%.

Turning to `CCN(CC)/[N+]([O-])=N/O`, the activation was inactive: -5.38%.

Take `CCC(C)C(=O)O[C@@H]1C[C@@]2(C)C(c3ccoc3)OC(=O)CC23OC2(C)O[C@@]14[C@@]1(C)C(CC(=O)OC)C5(C)CC1(O)C(O)(C5OC(=O)C1(C)OC1C)C(OC(C)=O)[C@@]34O2` (some centres undefined): the activation is inactive: -33.9%.

As for `c1ccc(C[C@@H](c2ccccc2)N2CCCCC2)cc1`, the activation is inactive: 2.39%.

Regarding `Clc1ccc(C2(Cn3cncn3)OCCO2)c(Cl)c1`, the activation was inactive: -6.32%.

As to `Cc1[nH]c2ccccc2c1CN(C)C`, the activation is inactive: -2.62%.

As to `Cc1nc(-c2ccc(-c3ccc(C(=O)N4CCc5cc6c(cc54)C4(CCN(C)CC4)CO6)cc3)c(C)c2)no1`, the activation is inactive: -29.4%.

Consider `C[C@]12CCC3C(CC[C@H]4C[C@H](O)CC[C@]34C)[C@@H]1CC[C@@H]2C(=O)CO` (some centres undefined), for which the activation was inactive: -7.64%.

For the compound `CCOC(=O)C1(c2ccccc2)CCCN(C)CC1` (centres undefined), the activation was inactive: -6.73%.

On to `CC(Cc1ccccc1)NC=O` (centres undefined), for which the activation was inactive: 1.9%.

`CN(CC(=O)N[C@H](CO)Cc1ccccc1)C(=O)[C@H](CCS(C)=O)NC(=O)[C@@H](N)Cc1ccc(O)cc1` (some centres undefined) (H-Y[Met(O)][Sar][Phe(ol)]): the activation is inactive: 5.51%.

`O=CC=O`: the activation is inactive: 2.16%.

`NC1C[C@H]1c1ccccc1` (some centres undefined): the activation is inactive: -2.77%.

For the compound `CCCCCCC(C)OC(=O)COc1ccc(Cl)cc1Cl` (centres undefined), the activation is inactive: 1.03%.

For the compound `c1ccc(N2CCC3(CCNCC3)CC2)nc1`, the activation was inactive: 3.08%.

With `CC(C)c1cccc(C(C)C)c1O`, the activation was inactive: -14.6% and inactive: -35.8% and inactive: -13%.

For the compound `CN1C2CCC1CC(OC(c1ccc(F)cc1)c1ccc(F)cc1)C2` (centres undefined), the activation was inactive: -4.58%.

As for `O=C(O)CC[N+](=O)[O-]`, the activation is inactive: -4.45% and inactive: -23.2%.

For the compound `O=C1NCN(c2ccccc2)C12CCN(CCCOc1ccc(F)cc1)CC2`, the activation is inactive: -17% and inactive: -5.87% and inactive: -9.91%.

As for `Oc1ccc2c3c1O[C@H]1[C@@H](O)CC[C@@]4(O)[C@@H](C2)N(CC2CCC2)CC[C@]314`, the activation is inactive: -12.5%.

As to `c1ccc([C@H]2CNCc3ccccc32)cc1`, the activation was inactive: -22.9%.

On to `C/C=C/c1ccc2c(c1)OCO2`, for which the activation is inactive: -18.4% and inactive: 6.73%.

On to `OCc1cnc[nH]1`, for which the activation is inactive: -27.2%.

`C[C@@H]1O[C@@H](O[C@H]2C[C@@H](O)[C@]3(CO)[C@@H]4C(CC[C@]3(O)C2)[C@@]2(O)CC[C@H]([C@@H]3COC(=O)C3)[C@@]2(C)C[C@H]4O)[C@H](O)[C@H](O)[C@H]1O` (some centres undefined): the activation is inactive: -4.36%.

With `Clc1ccccc1-c1cncnc1NCCc1cnc[nH]1`, the activation was inactive: -14.4%.

For `CCCN(C/C=C\I)[C@@H]1CCc2ccc(O)cc2C1`, the activation was inactive: -9.11%.

In the case of `CC[C@@]1(O)CC(O)c2c(cc3c(c2O)C(=O)c2c(O)ccc(O)c2C3=O)C1C(=O)OC` (some centres undefined), the activation was inactive: -3.1%.

Consider `CCCCCCCCCC(=O)O[C@H]1CC[C@H]2[C@@H]3CCC4=CC(=O)CC[C@@H]4[C@H]3CC[C@]12C`, for which the activation was inactive: -3.82%.

As for `O=C(NCNC(=O)NC1C(=O)NC(=O)N1CO)NC1C(=O)NC(=O)N1CO` (centres undefined), the activation was inactive: -26.7%.

Regarding `CC(=O)O[C@H]1CC[C@@]2(C)C(=CC[C@@H]3[C@@H]2CC[C@]2(C)C(=O)CC[C@@H]32)C1`, the activation was inactive: -16.2%.

`CC1CCC2C(C)C(=O)OC3OC4(C)CCC1C32OO4` (centres undefined): the activation is inactive: -2.54%.

In the case of `CCN[C@H](C)Cc1cccc(C(F)(F)F)c1`, the activation was inactive: 3.32%.

For the compound `O=C1C2CC=CCC2C(=O)N1SC(Cl)(Cl)Cl` (centres undefined), the activation was inactive: -12.1%.

Turning to `O=C(Oc1ccccc1)N1CCC2(CC1)CN(Cc1ccncc1)C2`, the activation is inactive: 2.79%.

On to `N#CC(C#N)=Cc1cc(O)c(O)c(O)c1`, for which the activation was inactive: -6.63% and inactive: 9.37%.

As to `CCCCCCCCCCCCCCCC[N+](C)(C)C`, the activation was inactive: -8.8% and inactive: 10.7%.

On to `O=[N+]([O-])c1ccccc1`, for which the activation is inactive: -24.9%.

Regarding `C[C@@H]1O[C@@H](O[C@H]2CC[C@]3(C=O)C4CC[C@]5(C)[C@@H](C6=CC(=O)OC6)CC[C@]5(O)[C@@H]4CC[C@]3(O)C2)[C@H](O)[C@H](O)[C@H]1O` (some centres undefined), the activation is inactive: -14.2%.

Consider `CN1C[C@H](CNC(=O)OCc2ccccc2)C[C@@H]2c3cccc4c3c(cn4C)C[C@H]21`, for which the activation was inactive: 18.4% and inactive: 17.9% and inactive: 1.47%.

As to `CC(C)(O)C1O[C@H]2CC[C@@]3(C)[C@@](O)(CC[C@H]4Cc5c([nH]c6ccccc56)[C@@]43C)C2=CC1=O` (some centres undefined), the activation is inactive: 14.4% and inactive: -7.16% and inactive: 7.56%.

In the case of `CCN1C[C@@]2(COC)C3[C@@H](OC)C4[C@@H]1C3([C@@H]1C[C@]3(O)[C@H](OC(=O)c5ccccc5)[C@@H]1[C@]4(OC(C)=O)[C@@H](O)[C@@H]3OC)[C@H](OC)C[C@H]2O`, the activation is inactive: -20.7%.

In the case of `CC(=O)N1CC[N+](C)(C)CC1`, the activation is inactive: 3.87% and inactive: 2.54%.

In the case of `O=c1ccc2cc(OC3OC(CO)C(O)C(O)C3O)c(O)cc2o1` (centres undefined), the activation was inactive: -5.75%.

As to `COc1ccc2c(c1)[C@@]13CCCC[C@H]1[C@@H](C2)NCC3`, the activation was inactive: -31.3%.

Consider `CC[C@@H](CO)NC(=O)[C@@H]1C=C2c3cccc4c3c(cn4C)C[C@H]2N(C)C1`, for which the activation was inactive: 16.6% and inactive: -4.64%.

Turning to `COc1ccc(NC(=O)N2CC[C@@]3(CCCN(C(=O)Oc4ccccc4)C3)C2)cc1`, the activation was inactive: -22.6%.

As to `NC(CO)Cc1ccccc1` (centres undefined), the activation was inactive: -4.92%.

`N#Cc1cccc(NC(=O)N2CC[C@@]3(CCCN(C(=O)Oc4ccccc4)C3)C2)c1`: the activation is inactive: -18%.

As to `CCN1C[C@]2(C)CC[C@H](OC)[C@]34C5C[C@@H]6CC[C@@](O)(C5C(=O)O6)C(C13)[C@@H](OC(=O)c1ccccc1)C24`, the activation was inactive: -23.1%.

On to `c1ccc(CN2CCNCC2)cc1`, for which the activation was inactive: 7.06%.

Turning to `CN1C(=O)CN=C(c2ccccc2)c2cc(Cl)ccc21`, the activation is inactive: -3.58%.

With `CC(=O)[C@@]1(O)CC[C@H]2[C@@H]3CCC4=CC(=O)CC[C@]4(C)C3(F)[C@@H](O)C[C@@]21C` (some centres undefined), the activation is inactive: -4.33%.

Regarding `Cc1cc([C@@H]2CCCN2C)on1`, the activation was inactive: 0.473%.

With `C[C@]12CC[C@H](O)CC1=CC[C@@H]1[C@@H]2CC[C@]2(C)C(=O)CC[C@@H]12`, the activation is inactive: -10.2%.

For the compound `C/C=C(\C)C(=O)OC1CC(OC(C)=O)[C@@]2(C(=O)OC)COC3C2[C@@]12CO[C@](O)(C(=O)OC)C2[C@](C)(C12OC1(C)C1CC2OC2OC=C[C@]21O)C3O` (some centres undefined), the activation is inactive: -10.4%.
